In PMC4336329 (PLoS ONE, 2015):
Hit rate of the full screen: of about 310,000 compounds, about 14,000 (4.5%) showed an effect of 50% or more. Effects have a minus sign here. Some of the results follow.

Molecular target: human ether-à-go-go-related gene (hERG) potassium channel (human, UniProt Q12809)
Test: primary screen, population patch clamp on CHO cells stably expressing hERG
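Also: peak tail current of the secondary pulse compared with the same well before compound.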

human ether-à-go-go-related gene (hERG) potassium channel, sequence (Q12809 whole entry, looked up): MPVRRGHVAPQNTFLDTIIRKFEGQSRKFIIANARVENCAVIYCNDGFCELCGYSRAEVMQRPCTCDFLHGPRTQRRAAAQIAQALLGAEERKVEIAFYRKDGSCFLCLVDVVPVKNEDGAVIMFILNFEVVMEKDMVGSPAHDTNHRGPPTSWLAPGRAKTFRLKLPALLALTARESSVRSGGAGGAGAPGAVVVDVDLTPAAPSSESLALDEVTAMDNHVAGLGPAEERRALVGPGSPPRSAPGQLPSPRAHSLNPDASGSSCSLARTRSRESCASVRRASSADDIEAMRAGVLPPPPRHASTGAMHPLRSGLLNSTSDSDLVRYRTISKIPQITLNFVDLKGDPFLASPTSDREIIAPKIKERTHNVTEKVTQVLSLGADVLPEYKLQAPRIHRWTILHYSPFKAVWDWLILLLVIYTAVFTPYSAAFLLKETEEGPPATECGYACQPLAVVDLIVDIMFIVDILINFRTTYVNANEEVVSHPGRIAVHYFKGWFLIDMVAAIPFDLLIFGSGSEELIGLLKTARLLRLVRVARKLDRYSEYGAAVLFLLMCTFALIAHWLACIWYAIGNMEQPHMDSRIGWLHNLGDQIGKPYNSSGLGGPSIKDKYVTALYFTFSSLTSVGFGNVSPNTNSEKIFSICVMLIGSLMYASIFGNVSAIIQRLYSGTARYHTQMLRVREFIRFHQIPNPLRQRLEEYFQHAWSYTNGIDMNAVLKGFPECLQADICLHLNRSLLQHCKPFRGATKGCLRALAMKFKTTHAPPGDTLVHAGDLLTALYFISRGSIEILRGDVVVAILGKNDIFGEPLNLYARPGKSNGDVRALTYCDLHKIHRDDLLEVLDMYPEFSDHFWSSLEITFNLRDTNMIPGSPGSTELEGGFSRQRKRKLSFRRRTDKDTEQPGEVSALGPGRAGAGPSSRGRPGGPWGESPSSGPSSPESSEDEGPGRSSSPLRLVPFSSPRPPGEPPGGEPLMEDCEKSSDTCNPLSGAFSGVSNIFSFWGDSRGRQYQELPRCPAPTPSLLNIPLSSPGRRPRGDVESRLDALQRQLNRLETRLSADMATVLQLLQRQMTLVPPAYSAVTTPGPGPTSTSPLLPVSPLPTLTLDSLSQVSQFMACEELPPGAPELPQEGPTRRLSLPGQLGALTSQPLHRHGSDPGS

SMILES | hERG current change (%, negative = inhibition) at 10uM
O=C(N/C(=C\c1ccccc1)C(=O)N1CCOCC1)c1ccco1 | 17.1%
CC12CCC(=O)N1C(C(=O)NCCc1ccccc1)CS2 (stereo not drawn) | 6.77%
Cc1n[nH]c(=O)c2c(NC(=O)CSc3c(Cl)cccc3Cl)oc(C)c12 | -11.8%
CCOC(=O)Nc1c2ccccc2nc2ccccc12 | -1.71%
COc1ccccc1CCN1CCCC(CN(C)C(=O)c2ccco2)C1 (stereo not drawn) | -68.9%
O=C(O)C1CCCN(S(=O)(=O)c2ccccc2[N+](=O)[O-])C1 (stereo not drawn) | 1.83%
CN(CC(=O)NNC(=O)CNC(=O)c1ccccc1Cl)S(=O)(=O)c1ccc(Cl)cc1 | 9.57%
S=C(NCCCn1ccnc1)NC1CCCCC1 | -13.5%
O=C(NCCCN1CCOCC1)c1cc2nc(-c3ccco3)cc(C(F)(F)F)n2n1 | 1.15%
C=CCOc1c(Cl)cc(CNc2ccc(N(C)C)cc2)cc1OC | 19.5%
N#CCCC(CCC#N)(CCC#N)c1cc[n+](CCc2ccccn2)cc1.[Cl-] | 19.9%
CCOc1ccc(C(C(=O)NC2CCCC2)N(CCCO)C(=O)c2ccc(-c3ccccc3)[nH]2)cc1 (stereo not drawn) | -61.6%
O=C(N/N=C/c1c[nH]c2ccc(Br)cc12)c1ccncc1 | 20.1%
O=C(CN1CCc2ccccc2C1)NCc1ccco1 | -11.9%
Cn1c(=O)n(CCc2ccccc2)c(=O)c2c1nc1n2CCCN1c1ccccc1 | -20.7%
CCCCC(=O)NCCc1cc2c(C)ccc(C)c2[nH]c1=O | 2.66%
Cc1ccc(Oc2ncccc2C(=O)NCC(=O)O)cc1 | 17.2%
COc1ccc(OC)c(NC(=O)N2CCCC(CNS(=O)(=O)c3cccs3)C2)c1 (stereo not drawn) | -2.77%
COc1ccc(NC(=O)CN(C)C(C)C(=O)N2CCCCC2)cc1 (stereo not drawn) | 3.97%
Cc1nn(-c2ccccc2)c(C)c1/C=N/NC(=O)c1cc(C(C)(C)C)[nH]n1 | -9.72%
Oc1ccc(CN2CCCc3ccccc32)c2cccnc12 | -3.86%
COc1ccc(C2C(C(=O)Nc3ccccc3OC)=C(C)Nc3nnnn32)c(OC)c1 (stereo not drawn) | -0.478%
CCOC(=O)CCNC(=O)c1ccc2nc(C3CCCCC3)oc2c1 | 1.03%

SMILES | hERG current change (%, negative = inhibition) at 10uM
COc1ccc(CC(=O)OCc2cc3ccccc3[nH]c2=O)cc1 | 9.28%
COC(=O)c1sccc1NC(=O)c1csc2c1CCCC2 | -10.9%
O=C(c1ccc(CN2CCc3ccccc3C2)cc1)N1CCc2ccccc2C1 | -7.54%
O=C(CSc1nnc2c(n1)[nH]c1ccccc12)N1CCCCC1 | -21.4%
CCOC(=O)C1CCN(C(=O)Cn2ncc3c([nH]c4ccccc43)c2=O)CC1 | 2.4%
Fc1c(F)c(F)c(SCn2cc(Br)cn2)c(F)c1F | 5.23%
CCOC(=O)C[C@H]1c2ccc(C(F)(F)F)cc2S(=O)(=O)N1c1ccccc1 | -3.62%
Cc1ccc(C)c(C(=O)COC(=O)Cn2c(C)csc2=O)c1 | 10.2%
c1ccc2c(-c3nnc(SCc4cn5ccccc5n4)o3)c[nH]c2c1 | -4.5%
Cc1cc2c(NC(=O)Nc3ccccc3)cccc2nn1 | 9.77%
O=C(CCC(=O)c1cccs1)Nc1ccc(N2CCCCC2)cc1 | -9.27%
CS(=O)(=O)Nc1ccc(C(=O)NCCc2ccccc2)cc1 | -69.6%
O=C(O)CC(NC(=O)c1ccco1)c1ccco1 (stereo not drawn) | 17.4%
COc1ccc(-c2cc(C(F)(F)F)nc(SCC(=O)N(C)Cc3cnn(C)c3C)n2)cc1OC | -42.4%
CCCCCC/C=C/c1ccc([C@H]2[C@H]3C=CC[C@@H](C)[C@@H]3C(=O)N2Cc2ccccc2)c(F)c1 | 4.76%
O=C(COc1ncnc2ccccc12)NCCc1ccc(F)cc1 | -6.11%
CC(=O)N/C(=C\c1ccccc1)C(=O)OCC(=O)c1c(N)n(CC(C)C)c(=O)n(C)c1=O | -3.67%
CCNC(=O)C/C(C)=N/NC(=O)C12CC3CC(CC(C3)C1)C2 | 22.3%
O=C(Cn1cc([N+](=O)[O-])cn1)Nc1cccnc1 | 10.1%
COc1cccc(C(=O)c2c[nH]c(C(=O)NCCCN3CCOCC3)c2)c1 | 38.1%
CCOC(=O)c1cnc(SC)nc1Oc1cccc(NC(=O)c2ccc(C)cc2)c1 | 11.4%
Cc1cccc(C(=O)Nc2cccc(Br)c2)c1[N+](=O)[O-] | 10.1%
COP(=O)(OC)c1nc(-c2cccc3ccccc23)oc1NCCc1ccccc1 | 1.62%

SMILES | hERG current change (%, negative = inhibition) at 10uM
CN1CCC(NC(=O)c2cccs2)CC1 | 6.5%
O=C(CCSc1nc(-c2ccco2)cc(C(F)(F)F)n1)NCCN1CCOCC1 | 10%
O=C1/C(=C/c2ccncc2)SC(=S)N1C1CCCCC1 | 6.81%
Clc1ccc(-c2nnnn2-c2ccc(Cl)cc2)cc1 | 6.99%
CN[C@H](CC(=O)O)C(=O)O | -6.27%
O=C(O)c1c2c(nc3ccc(Cl)cc13)CCC2 | 4.39%
CN1CCN(C(=O)c2cc(C(C)(C)C)cc(C(C)(C)C)c2)CC1 | -12.1%
COc1ccc(NC(=O)CCS(=O)(=O)c2ccccc2)c(OC)c1 | -3.69%
COc1ccc(C)cc1NC(=O)Nc1ccc(C(=O)N2CCCC2)cc1 | -23%
COc1ccc(OCc2nnc(SC3CCOC3=O)n2-c2ccccc2)cc1 (stereo not drawn) | -11.2%
CN1CCN(S(=O)(=O)c2ccc(NN)nc2)CC1 | -17%
Cc1ccc(S(=O)(=O)N/N=C(\c2ccccc2)c2cccnc2)cc1 | -1.87%
Oc1ccc(-c2cnc(-c3ccc(O)cc3)nc2)cc1 | 9.71%
O=C(Nc1cccnc1)c1cc(-c2cc(Cl)ccc2O)n[nH]1 | -1.89%
CN(CCOC(=O)c1cccc(Br)c1)C(C)(C)C.Cl | -35.9%
Cc1ccccc1S(=O)(=O)Oc1ccc2ccc(O)cc2c1 | 8.84%
CC(C(=O)NCCCn1ccnc1)(c1ccccc1)c1ccccc1.Cl | -73.1%
O=C1N/C(=N\N=C\c2cccnc2)SC1Cc1ccc(SC(F)F)cc1 (stereo not drawn) | -0.761%
C=CCN1CCN(C(c2ccc(Cl)cc2)c2nnnn2CCc2ccc(OC)c(OC)c2)CC1.Cl (stereo not drawn) | -48.1%
c1ccc(-c2nc3nonc3nc2-c2ccccc2)cc1 | -15.6%
CCOC(=O)N1CCN(C(=O)c2c(Cl)cnn2C)CC1 | 3.04%
CCOc1ccc(NC(=O)Nc2cnccn2)cc1 | 4.33%
CCOc1ccc(NC(=O)COC(=O)CCN2C(=O)C3CC=CCC3C2=O)cc1OCC (stereo not drawn) | -7.18%

SMILES | hERG current change (%, negative = inhibition) at 10uM
CN1CCN(C(CNC(=O)c2ccc(Br)o2)c2ccc(F)cc2)CC1 (stereo not drawn) | -17.5%
CCCCN(NC(C)=O)c1nc(Cl)nc(NC(C)C)n1 | -6.31%
CC(=O)c1cccc(NC(=O)NCc2ccc3c(c2)OCO3)c1 | 0.0636%
O=C(Nc1ccccc1-c1nnn(CC(=O)N2CCN(c3ccccc3)CC2)n1)c1cccs1 | 6.09%
NC(=S)NC(=O)c1ccccc1 | 23.2%
CCN(CCCNC(=O)CCCn1c(=O)[nH]c2ccccc2c1=O)c1cccc(C)c1 | -0.748%
CCOC(=O)c1sc(NC(=O)CSc2nncs2)c(C(=O)OCC)c1C | -1.04%
COc1cc([N+](=O)[O-])ccc1NC(=O)CC(C)C | -11.5%
Cc1ccccc1OCCn1cc(C=O)c2ccccc21 | 12.4%
Cc1cccc2c1NC(=O)C21N2CCCC2C(C(=O)c2ccc3ccccc3c2)C12C(=O)Nc1ccccc12 (stereo not drawn) | 0.696%
Cc1ccc(NC(=O)C2CC(=O)N(c3ccc4c5c(cccc35)CC4)C2)cc1 (stereo not drawn) | 4.76%
O=C1NC(=O)/C(=C/c2ccc(-c3cc(C(=O)O)ccc3Cl)o2)S1 | 17.9%
O=C(NCC1CCCO1)c1ccc(NC(=O)C2CCCCC2C(=O)O)cc1 (stereo not drawn) | 13.7%
NS(=O)(=O)c1ccc(NC(=O)CSc2ccccn2)cc1 | 1.46%
COc1ccc(C(NC(=O)CC(C)C)c2c(O)ccc3ccccc23)cc1 (stereo not drawn) | -3.53%
CCOC(=O)c1oc2ccccc2c1COC(=O)CNC(=O)c1ccco1 | -16%
COC(=O)/C(C#N)=C/c1c(N2CCN(c3cccc(Cl)c3)CC2)nc2c(C)cccn2c1=O | -1.84%
Cc1ccc(N2CC(C(=O)Nc3nnc(SCCC4OCCO4)s3)CC2=O)cc1C (stereo not drawn) | 22.2%
COc1ccccc1NC(=O)CN(Cc1ccco1)C(=O)c1cncc(Br)c1 | -22.4%
CCCn1c(-c2ccc(OC)cc2)nc2ccccc21 | -16.1%
CCCCSc1nc(N)c(NC(=O)c2ccco2)c(=O)[nH]1 | 14.2%
